Source: the supplement of paper PMC4166925
± gives the standard deviation of the averaged measurements. Whole data set: some 33,000 sequences, median “E-score (dimensionless, -0.5 to 0.5)” near -0.049, cut for the highest 2% near 0.37. Some of the results follow.

system: T1, PmTbr T-box DNA-binding domain (GST fusion); assay: PBM E-score of 8-mer (E-score (dimensionless, -0.5 to 0.5)); Tbr is Tbrain of the sea star Patiria miniata (Pm) or the sea urchin Strongylocentrotus purpuratus (Sp); higher = stronger binding preference; most listed sequences are background and not binding sites; conditions: the construct has about 5 more residues each side
T1 sequence: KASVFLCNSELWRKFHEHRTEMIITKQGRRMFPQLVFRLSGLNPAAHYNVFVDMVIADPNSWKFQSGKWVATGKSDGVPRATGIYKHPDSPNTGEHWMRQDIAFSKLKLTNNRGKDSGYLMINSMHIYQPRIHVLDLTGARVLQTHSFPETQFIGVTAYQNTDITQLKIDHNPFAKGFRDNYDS
Outline: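 GST-fused Tbr T-box DNA-binding domains (the whole T-box plus about five flanking residues) were expressed in BL21 E. coli at 20 °C and purified by glutathione affinity chromatography. Universal Agilent oligonucleotide arrays were made double-stranded by primer extension, incubated with 200 nM protein in PBS (pH 7.5), then scanned and quantified. Every ungapped 8-mer was scored from probe intensities. The Universal PBM Analysis Suite gave each word an enrichment E-score, averaged over duplicate arrays.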

Sequence | PBM E-score of 8-mer
TCCCAAAA | -0.287 ± 0.025
CACAGACC | -0.114 ± 0.099
CAAGCAGG | -0.3147 ± 0.0026
AATCTGAA | -0.329 ± 0.043
ACGGCCAA | -0.116 ± 0.11
AGCAACTC | 0.00949 ± 0.024
CGTCTCGC | 0.257 ± 0.005
ATCAGACC | 0.018 ± 0.054
GATGTAGC | -0.2 ± 0.034
GGAAGTCC | -0.292 ± 0.066
AATGAGCT | -0.0566 ± 0.018
ATCGCAAC | 0.264 ± 0.044
AATATGCA | -0.0525 ± 0.028
ACCTCTTA | 0.0447 ± 0.086
AAAGGCTC | -0.232 ± 0.044
TCTCACAA | 0.325 ± 0.0084
CTGATTCA | -0.0989 ± 0.028
GACTATCA | 0.147 ± 0.0049
CGTCGATA | -0.0182 ± 0.033
ATCAAAAC | -0.00902 ± 0.088
CAGTTGGA | -0.0465 ± 0.014
GAAGAGTC | -0.306 ± 0.084
CCCTGATA | -0.24 ± 0.06
ACGGATGG | -0.025 ± 0.0085
ATGTTAAA | -0.165 ± 0.078

Sequence | PBM E-score of 8-mer
CATTGCCC | -0.223 ± 0.056
AGTAATCC | -0.239 ± 0.016
AGGGCGAG | -0.0619 ± 0.046
ACGAGGGC | -0.184 ± 0.0034
GCCTCATA | -0.0905 ± 0.06
ACTGGTCG | -0.222 ± 0.13
GACAGCAA | 0.133 ± 0.07
CGGTAAAG | -0.102 ± 0.037
ACTCAAGC | -0.197 ± 0.065
GATCGCAC | 0.42 ± 0.018
CTGGACCC | -0.302 ± 0.037
ACGATCTA | 0.0459 ± 0.022
AGCGATTC | -0.182 ± 0.022
ATTTTATC | 0.107 ± 0.12
AGAGGCCC | -0.223 ± 0.056
GCCAACCC | -0.13 ± 0.038
GAGGTTAA | -0.0997 ± 0.046
ACGCTACC | 0.0696 ± 0.015
AAATACGA | -0.164 ± 0.022
ACTCCTTG | -0.0693 ± 0.038
AGTGAACG | 0.0654 ± 0.058
CCATAGTA | -0.173 ± 0.019
CTGCTACC | 0.0456 ± 0.037
CAATTACC | 0.163 ± 0.0049
ATTCTCGA | -0.00943 ± 0.017

Sequence | PBM E-score of 8-mer
GCTTAGTA | -0.247 ± 0.053
ATCGTGAC | 0.2 ± 0.0054
CTTCGGTC | -0.225 ± 0.053
ATCTAAAT | -0.0779 ± 0.077
CTTTCGCA | 0.411 ± 0.015
AACTAAAC | -0.19 ± 0.01
CGCCGGAG | -0.0281 ± 0.046
GCCATCGA | 0.0334 ± 0.092
CAGGAGGC | -0.0929 ± 0.013
CGGCAAAA | -0.0622 ± 0.057
CACGAGGC | 0.0167 ± 0.00069
GGGGTCCA | -0.252 ± 0.075
ACGAGGCA | -0.249 ± 0.093
CAAGGTAG | 0.0168 ± 0.033
CGGTCGTA | -0.154 ± 0.11
GCAAAAGC | 0.037 ± 0.06
AAGCAATT | -0.296 ± 0.047
AGATGTGA | 0.357 ± 0.01
TATGAAGA | -0.156 ± 0.019
GCATTTTA | -0.0745 ± 0.018
CGTGTGAG | 0.363 ± 0.013
CATCGACC | 0.0634 ± 0.025
ACGGCACT | -0.184 ± 0.014
AAAACTCA | -0.126 ± 0.05
GAATGATA | -0.177 ± 0.015

Sequence | PBM E-score of 8-mer
CCGTCCTA | -0.275 ± 0.02
ACAGCTAT | 0.217 ± 0.043
GCTGTTAA | 0.199 ± 0.089
CAGTGACG | 0.134 ± 0.011
ACGCGTTG | 0.187 ± 0.0046
CTTACGCC | 0.108 ± 0.029
ATCGGGTA | -0.246 ± 0.072
TACATCGA | -0.0841 ± 0.064
AGGAATCC | -0.228 ± 0.051
CCAGTTCG | -0.194 ± 0.018
CAGGCCCA | -0.313 ± 0.039
GTACCAAC | -0.0487 ± 0.11
ATCGAAAC | -0.0958 ± 0.024
GCCTAAAA | -0.113 ± 0.042
CCTGCGCA | 0.0979 ± 0.052
ACGCTGAC | -0.0163 ± 0.12
AAATGCAG | -0.218 ± 0.083
GCGCCATA | 0.125 ± 0.0078
AGTTTGCA | 0.0343 ± 0.036
TCTTGCCA | 0.0678 ± 0.023
TCAGGGAA | -0.115 ± 0.034
CACAGATC | 0.0575 ± 0.025
AATGGGTC | -0.142 ± 0.021
CGTCGTAA | -0.109 ± 0.033
CCGATCCC | -0.171 ± 0.081

Sequence | PBM E-score of 8-mer
AAGATTGG | -0.131 ± 0.058
GGCACGAC | 0.00736 ± 0.0017
AAATTCTG | 0.00903 ± 0.054
ACCTAGTG | 0.223 ± 0.013
CAACTTCC | -0.0171 ± 0.036
AGAGACTA | -0.135 ± 0.0073
CACAGCTC | 0.227 ± 0.0088
AAAGACAA | -0.172 ± 0.069
ACCTGTTC | 0.218 ± 0.031
CATGTGGG | -0.0208 ± 0.025
CACAGTGA | 0.15 ± 0.019
AACGGTTC | 0.0827 ± 0.042
GTCAGTTA | 0.0514 ± 0.0075
CCGGCAAA | -0.126 ± 0.059
ACACCATC | 0.3623 ± 0.0033
AGCACAAT | 0.0257 ± 0.032
GTAATAAA | -0.195 ± 0.099
ATCTACTG | -0.184 ± 0.041
GCACGTTA | 0.216 ± 0.031
ACCGACGT | -0.0477 ± 0.005
CATTCACA | 0.385 ± 0.0049
ACTTGCTC | -0.0342 ± 0.093
CCCAGGCG | -0.0696 ± 0.036
CTCTTCTC | -0.238 ± 0.028
ACCATAAT | -0.023 ± 0.091

Sequence | PBM E-score of 8-mer
CATGTTTA | -0.058 ± 0.078
GGAACTGA | -0.00021 ± 0.054
ACGGATAG | 0.08 ± 0.03
ATGTAAGG | -0.101 ± 0.073
CCAGAGCC | -0.17 ± 0.0096
CGCTTCTC | 0.103 ± 0.028
GACTAATA | -0.102 ± 0.011
ACGGCCGA | -0.316 ± 0.0043
CAGCGTCG | -0.0943 ± 0.09
GATCTATA | 0.0424 ± 0.02
CTGGCCAC | 0.0141 ± 0.043
ACCTGTCC | 0.151 ± 0.022
AGTTAGCC | -0.112 ± 0.064
CAAACCCG | 0.0206 ± 0.045
AGTGAACA | 0.169 ± 0.0073
TGGTCGAA | -0.187 ± 0.032
TAGAAATA | -0.196 ± 0.012
GATTTGTA | -0.185 ± 0.12
CGCTTTAG | 0.0898 ± 0.14
GTTGTTGA | 0.245 ± 0.029
AGAATGCC | -0.272 ± 0.043
AATTTTGC | 0.0935 ± 0.083
AAGCCCTG | -0.226 ± 0.021
AATATGCG | 0.139 ± 0.038
GAAATGAC | 0.177 ± 0.068

Sequence | PBM E-score of 8-mer
GCAGGACC | -0.079 ± 0.057
CCACTATA | 0.0251 ± 0.017
GTTTCCGA | -0.12 ± 0.0075
CCCATTCG | -0.0815 ± 0.052
GCCGGAGC | -0.208 ± 0.13
CAGCATCG | -0.0296 ± 0.0072
AGGGATTC | -0.151 ± 0.015
CGCTGGCA | 0.163 ± 0.039
CCATATGC | -0.0165 ± 0.011
CCCCATAA | -0.182 ± 0.07
CCTATTAG | -0.0353 ± 0.025
ACTCGCCG | 0.146 ± 0.035
CATCCCGC | -0.174 ± 0.0089
GTACACCA | -0.113 ± 0.087
CAGACTCA | -0.129 ± 0.033
AGCCGCGA | 0.232 ± 0.0095
ATACGAGG | -0.335 ± 0.023
CGTCGCGC | 0.245 ± 0.066
GGACGATA | -0.0612 ± 0.089
AAACTAGT | -0.177 ± 0.0073
GATTCCGA | -0.212 ± 0.03
ATGAGCGC | -0.289 ± 0.02
